Consider 42 sequences from paper PMC7819943, “Rice protein-binding microarrays: a tool to detect cis-acting elements near promoter regions in rice”.

Some of the results follow.

The target in this test is T1, OsWOX13 (Oryza sativa, UniProt Q5QMM3 1-267).
T1 sequence: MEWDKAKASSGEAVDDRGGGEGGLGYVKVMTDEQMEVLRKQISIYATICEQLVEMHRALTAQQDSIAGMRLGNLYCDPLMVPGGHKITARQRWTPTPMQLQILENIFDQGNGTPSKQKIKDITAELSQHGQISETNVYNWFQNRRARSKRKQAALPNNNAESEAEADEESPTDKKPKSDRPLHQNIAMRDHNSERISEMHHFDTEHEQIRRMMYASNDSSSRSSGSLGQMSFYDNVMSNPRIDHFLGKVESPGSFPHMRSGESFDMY
Nature of the test: protein-binding microarray (RPBM); PBS, 2% BSA, 51.3 ng/ul salmon testes DNA, 50 uM zinc acetate, 200 nM TF, 25 C, 1 h; high values mean tight binding. Particulars: protein: recombinant; tags: N-terminal polyhistidine and DsRed monomer fusion (pET32a); label: CyDye5-dUTP incorporated in the synthesized complementary strand; 3' TTTTT single-stranded linker to array surface; dsDNA, one strand shown. An outline of the steps:
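Binding signal here means per-feature fluorescence intensity in arbitrary units. The values were read on an Axon 4000B scanner after a custom Agilent array, double-stranded by primer extension with Cy5-dUTP, was incubated with 200 nM protein at 25 °C for 1 h in PBS with 2% BSA, salmon testes DNA and 50 µM zinc acetate, then washed. The proteins were transcription factors with an N-terminal polyhistidine tag and DsRed, expressed in E. coli BL21-CodonPlus and purified on Ni–NTA.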
Regarding “TTTGATTATGCTTGTCATTTCCATTCATTTGCTCATATACCGGAGTCACCTAGTGCAG”, the binding signal is 22100 fluorescence intensity (a.u.).
Consider “TCTGATTATTAATTATCACTTTATCAGTCTCCAACGTTTACGGAGTCACCTAGTGCAG”, for which the binding signal was 40900 fluorescence intensity (a.u.).
Take “TTGATTTATTTGATAGGATGTAGTATATAACCAGCTACATCGGAGTCACCTAGTGCAG”: the binding signal is 20900 fluorescence intensity (a.u.).
Turning to “GTCAAAATTTTGACAACTATACCAAAATTTTAGCATTGTCCGGAGTCACCTAGTGCAG”, the binding signal is 5870 fluorescence intensity (a.u.).
With “TCCTTGATTTAATGTTGTCACCATTGACCTTATCACACATCGGAGTCACCTAGTGCAG” the figure was 40700 fluorescence intensity (a.u.); with “CTCCACTAATCCTACCAATTAACGAGTCGTACTCAATAATCGGAGTCACCTAGTGCAG”, 7550 fluorescence intensity (a.u.).
Consider “AAAGTAATTTCTTCAATAACTAACGGTCAAACTAATGGTCCGGAGTCACCTAGTGCAG”, for which the binding signal was 8690 fluorescence intensity (a.u.).
Regarding “ACTAATTAACTATCTTTTAGCACTACATTATTTGATCCTCCGGAGTCACCTAGTGCAG”, the binding signal was 34200 fluorescence intensity (a.u.).
For the sequence “ACATGGTCGATAATTGAAACCGAATGTAGCCAGGCCAGGCCGGAGTCACCTAGTGCAG”, the binding signal was 12600 fluorescence intensity (a.u.).
“AGGGCTTAATTATTGCCTATTATATTTAGACTCAAAATCTCGGAGTCACCTAGTGCAG”: the binding signal is 12200 fluorescence intensity (a.u.).
Regarding “AATCCATGATTATCACATATTTACTGTAGAACTACATTGTCGGAGTCACCTAGTGCAG”, the binding signal was 11200 fluorescence intensity (a.u.).
For the sequence “CTTGATTTATTATTTACCATGTTAGAAATGTTTATTTATACGGAGTCACCTAGTGCAG”, the binding signal is 29600 fluorescence intensity (a.u.).
On to “GGTAATTGGAAGCCTATGCACGTGGGCGGGGAGGCGTCGGCGGAGTCACCTAGTGCAG”, for which the binding signal was 19800 fluorescence intensity (a.u.).
For “ATGATGGAACAGTGATGTGATCGGCGAGTTGTGTCGCGAGCGGAGTCACCTAGTGCAG”, the binding signal was 8430 fluorescence intensity (a.u.).
Consider “GAGACGAATTTATTAAGCCTAATTAATCCATCATTAGCACCGGAGTCACCTAGTGCAG”, for which the binding signal is 7210 fluorescence intensity (a.u.).
To “ACAATGAAGCCAATCACCATGATTTCGATTCTAAGAGATCCGGAGTCACCTAGTGCAG” belongs 13500 fluorescence intensity (a.u.).
With “CGGTTGAGAGAGCTAGCTGATTGGTTTTGATGGGAGGACCCGGAGTCACCTAGTGCAG” the figure was 7540 fluorescence intensity (a.u.); with “AGGCTTTTGTGATAGATTGTACGGTAGGCTATTTTGGCTACGGAGTCACCTAGTGCAG”, 3470 fluorescence intensity (a.u.); with “TATGATTACATATATAACATTTGAAGAAATCAATTTATTCCGGAGTCACCTAGTGCAG”, 7560 fluorescence intensity (a.u.).
“ACTGTAATGGTGATTTAATCCAACTGCGTTTTCGAGGAAACGGAGTCACCTAGTGCAG”: the binding signal is 5820 fluorescence intensity (a.u.).
In the case of “TTATGTAATTTGTTTTGTTATTAGACTGTTCAATACTTTACGGAGTCACCTAGTGCAG”, the binding signal was 8670 fluorescence intensity (a.u.).
To “ACATAAACATAGAAGTTAAAATTTAACTTCTACAAGTTGTCGGAGTCACCTAGTGCAG” belongs 3220 fluorescence intensity (a.u.).
For the sequence “GAATGGTCCAACAAGGAGACTGAGGAATGGTCAACACATTCGGAGTCACCTAGTGCAG”, the binding signal was 59700 fluorescence intensity (a.u.).
Turning to “AGGAGTAAATCATTTACATCGACAACGGTAGGAGTGGGATCGGAGTCACCTAGTGCAG”, the binding signal is 4330 fluorescence intensity (a.u.).
For “ATATATATATATATATATATGTTGTATGGGCATTGTTAAACGGAGTCACCTAGTGCAG”, the binding signal was 12200 fluorescence intensity (a.u.).
As for “TTTCAGTTATTTCCTAATTATATTTCTATATGGACTTAGTCGGAGTCACCTAGTGCAG”, the binding signal was 9980 fluorescence intensity (a.u.).
Consider “TCGATTGACTGGACGAGGAATAGTAACCCTGCACATTGTGCGGAGTCACCTAGTGCAG”, for which the binding signal is 44100 fluorescence intensity (a.u.).
Take “CTTGACATGTCTACTAACTGTCCATCAATAAACTTGTGATCGGAGTCACCTAGTGCAG”: the binding signal was 15200 fluorescence intensity (a.u.).
Take “CTGACAAAATTACATACCAGACGTGTATCTCCAACATTAACGGAGTCACCTAGTGCAG”: the binding signal is 3430 fluorescence intensity (a.u.).
As for “ATCTAATATTGAATATAATTTGATAATATGTATGTTTTGTCGGAGTCACCTAGTGCAG”, the binding signal is 3790 fluorescence intensity (a.u.).
Consider “GCCTAATTAATCCGTTATTAGCAAATATTTACTGTAGCACCGGAGTCACCTAGTGCAG”, for which the binding signal was 35900 fluorescence intensity (a.u.).
Consider “CACATGCAAATTATCGTGCGTCTGTATGTGGCATGCTTGTCGGAGTCACCTAGTGCAG”, for which the binding signal was 4230 fluorescence intensity (a.u.).
To “AGTGAAGGTAATTATCTGCCGCACTGCTGATGCTAGCAAACGGAGTCACCTAGTGCAG” belongs 3380 fluorescence intensity (a.u.); to “GTGGATTGGACAGACGCGGAGTGAAACCCGGCCCACATAACGGAGTCACCTAGTGCAG”, 4820 fluorescence intensity (a.u.); to “AAAATCTGACAAATTTTGACCGAGAAATCTGTCACCAGATCGGAGTCACCTAGTGCAG”, 3450 fluorescence intensity (a.u.).
With “AATGAATCTAGTCAATCCTGCTACTTTACATTGAGGCTGACGGAGTCACCTAGTGCAG” the figure was 3630 fluorescence intensity (a.u.); with “AGCTTCATTAGAAATTAATTAATTATTGTTATTTCTTTACCGGAGTCACCTAGTGCAG”, 34500 fluorescence intensity (a.u.); with “TTGTTAATTTCAACGTTCCAAAGTAATGAATTCATGAGAACGGAGTCACCTAGTGCAG”, 4140 fluorescence intensity (a.u.).
With “TGCAGAATTAATGAATTATATTACTACAATCTTTTGCCTTCGGAGTCACCTAGTGCAG”, the binding signal is 3300 fluorescence intensity (a.u.).
For the sequence “CTTATAAATTATATAAGCCAATAAGCTGACTTAAAAGGATCGGAGTCACCTAGTGCAG”, the binding signal is 6950 fluorescence intensity (a.u.).
“GGATTGATTAAGTTATGATCCAGAGTGAAATTTTAGCTATCGGAGTCACCTAGTGCAG”: the binding signal is 26600 fluorescence intensity (a.u.).
Take “ATGTGATGTAATGTGATGGAAATTTGGAAGTTTGGAGAAACGGAGTCACCTAGTGCAG”: the binding signal is 16600 fluorescence intensity (a.u.).
